The source of these data is the supplement of paper PMC12217912.

The list shows a part of the results. The full chains were built here from the parent and the listed change. Values near 0.05 are background.

B1: TEV protease; numbered along this chain (parent)
chain: MGESLFKGPRDYNPISSSICHLTNESDGHTTSLYGIGFGPFIITNKHLFRRNNGTLVVQSLHGVFKVKDTTTLQQHLVDGRDMIIIRMPKDFPPFPQKLKFREPQREERICLVTTNFQTKSMSSMVSDTSCTFPSGDGIFWKHWIQTKDGQCGSPLVSTRDGFIVGIHSASNFTNTNNYFTSVPKNFMELLTNQEAQQWVSGWRLNADSVLWGGHKVFMVKPEEPFQPVKEATQL

Variants of B1 are the subject of this experiment. Description: raw area under fraction-flipped curve 0-4 h after induction (AUC4h, not background-subtracted), DNA-recorder readout of cleavage of the substrate (dimensionless); higher = more cleavage of the substrate by the protease variant. The following applies: temperature: 34 °C; time window: 0-4 h after rhamnose induction. As for the experimental part: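 In vivo DNA recorder in E. coli TOP10(DE3) ΔrhaA at 34 °C. Each TEVp single-site mutant (parent TEVp 0) is paired with a single-site variant of the 7-mer TEVs (canonical ENLYFQ|S). The substrate sits between flexible linkers in a Bxb1-sfGFP-TEVs-SsrA fusion, so cleavage stabilises Bxb1 and speeds flipping of a recombination array, read by NGS. The value is the raw area under the fraction-flipped curve over 0-4 h after rhamnose induction (AUC4h), with ≥20 reads per time point. It is not background-subtracted; inactive controls average about 0.047.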
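Further: Bxb1 expression induced with 0.2% (w/v) L-rhamnose at OD600 near 0.5, cultures sampled hourly, flipped fraction per protease–substrate barcode pair counted by paired-end Illumina sequencing.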

For MGESLFKGPRDYNPISSSICHLTNESDGHTTSLYGIGFGPFIITNKHLFRRNNGTLVVQSLHGVFKVKDTTTLQQHLVDGRDMIIIRMPKDFPPFPQKLKFREPQREERICLVTTNFQTKSMSSMVSDTSCTFPSGDGIFWKHWIQTKDGQCGSPLVSTRDGFIVGIHSASNFTNTNNYVTSVPKNFMELLTNQEAQQWVSGWRLNADSVLWGGHKVFMVKPEEPFQPVKEATQL [F180V], the “area with substrate EALYFQS” value is 0.0543, the “area with substrate ECLYFQS” value was determined as 0.0553, the “area with substrate EDLYFQS” value was 0.0589 and the “area with substrate EELYFQS” value came out at 0.0503. The “area with substrate EGLYFQS” value came to 0.0591, the “area with substrate EILYFQS” value came out at 0.075, the “area with substrate EKLYFQS” value was 0.0551 and the “area with substrate ELLYFQS” value worked out at 0.0568. The “area with substrate EMLYFQS” value stood at 0.0574, the “area with substrate EQLYFQS” value turned out to be 0.0634, the “area with substrate ERLYFQS” value turned out to be 0.0557 and the “area with substrate ESLYFQS” value stood at 0.0587. Also, the “area with substrate ETLYFQS” value came out at 0.0543, the “area with substrate EVLYFQS” value was found to be 0.0587 and the “area with substrate EWLYFQS” value stood at 0.0546.
Consider MGESLFKGPRDYNPISSSICHLTNESDGHTTSLYGIGFGPFIITNKHLFRRNNGTLVVQSLHGVFKVKDTTTLQQHLVDGRDMIIIRMPKDFPPFPQKLKFREPQREERICLVTTNFQTKSMSSMVSDTSCTFPSGDGIFWKHWIQTKDGQCGSPLVSTRDGFIVGIHSASNFTNTNNYCTSVPKNFMELLTNQEAQQWVSGWRLNADSVLWGGHKVFMVKPEEPFQPVKEATQL [F180C], for which the “area with substrate EALYFQS” value stood at 0.0968, the “area with substrate ECLYFQS” value is 0.0746, the “area with substrate EELYFQS” value is 0.102 and the “area with substrate EHLYFQS” value stood at 0.0706. In addition, the “area with substrate EKLYFQS” value came to 0.0939, the “area with substrate ELLYFQS” value is 0.0803, the “area with substrate EMLYFQS” value was determined as 0.0835 and the “area with substrate EPLYFQS” value is 0.11. The “area with substrate EQLYFQS” value was determined as 0.0922, the “area with substrate ERLYFQS” value was found to be 0.0742, the “area with substrate ESLYFQS” value was found to be 0.0774 and the “area with substrate ETLYFQS” value turned out to be 0. Also, the “area with substrate EVLYFQS” value stood at 0.0732 and the “area with substrate EYLYFQS” value was 0.0634.
For the variant MGESLFKGPRDYNPISSSICHLTNESDGHTTSLYGIGFGPFIITNKHLFRRNNGTLVVQSLHGVFKVKDTTTLQQHLVDGRDMIIIRMPKDFPPFPQKLKFREPQREERICLVTTNFQTKSMSSMVSDTSCTFPSGDGIFWKHWIQTKDGQCGSPLVSTRDGFIVGIHSASNFTCTNNYFTSVPKNFMELLTNQEAQQWVSGWRLNADSVLWGGHKVFMVKPEEPFQPVKEATQL [N175C], the “area with substrate EALYFQS” value is 0.119, the “area with substrate ECLYFQS” value was 0.0928, the “area with substrate EDLYFQS” value stood at 0.0028 and the “area with substrate EELYFQS” value worked out at 0.0591. Further, the “area with substrate EGLYFQS” value was determined as 0.0934, the “area with substrate EHLYFQS” value is 0.115, the “area with substrate ELLYFQS” value turned out to be 0.123 and the “area with substrate EMLYFQS” value came out at 0.0903. Moreover, the “area with substrate EQLYFQS” value was 0.111, the “area with substrate ERLYFQS” value was found to be 0.0869, the “area with substrate ESLYFQS” value came out at 0.0822 and the “area with substrate EVLYFQS” value stood at 0.0968.
With MGESLFKGPRDYNPISSSICHLTNESDGHTTSLYGIGFGPFIITNKHLFRRNNGTLVVQSLHGVFKVKDTTTLQQHLVDGRDMIIIRMPKDFPPFPQKLKFREPQREERICLVTTNFQTKSMSSMVSDTSCTFPSGDGIFWKHWIQTKDGQCGSPLVSTRDGFIVGIHSASNFTNTNNYFTSTPKNFMELLTNQEAQQWVSGWRLNADSVLWGGHKVFMVKPEEPFQPVKEATQL [V183T], the “area with substrate EALYFQS” value turned out to be 0.0991, the “area with substrate EDLYFQS” value was found to be 0.112, the “area with substrate EELYFQS” value was found to be 0.117 and the “area with substrate EGLYFQS” value came out at 0.133. For the same variant, the “area with substrate EHLYFQS” value was 0.11, the “area with substrate EILYFQS” value amounted to 0.0823, the “area with substrate EPLYFQS” value was determined as 0.112 and the “area with substrate EQLYFQS” value turned out to be 0.108. The “area with substrate ERLYFQS” value is 0.097, the “area with substrate ESLYFQS” value was 0.114, the “area with substrate EVLYFQS” value came out at 0.0921 and the “area with substrate EWLYFQS” value was determined as 0.0812. Moreover, the “area with substrate EYLYFQS” value stood at 0.104.
Take MGESLFKGPRDYNPISSSICHLTNESDGHTTSLYGIGFGPFIITNKHLFRRNNGTLVVQSLHGVFKVKDTTTLQQHLVDGRDMIIIRMPKDFPPFPQKLKFREPQREERICLVTTNFQTKSMSSMVSDTSCTFPSGDGIFWKHWIQTKDGQCGSPLVSTRDGFIVGIHSASNFTNYNNYFTSVPKNFMELLTNQEAQQWVSGWRLNADSVLWGGHKVFMVKPEEPFQPVKEATQL [T176Y]: the “area with substrate EALYFQS” value was 0.0805, the “area with substrate ECLYFQS” value was determined as 0.0671, the “area with substrate EDLYFQS” value came out at 0.0656 and the “area with substrate EFLYFQS” value came to 0.08. For the same variant, the “area with substrate EHLYFQS” value is 0.0727, the “area with substrate EILYFQS” value was 0.0431, the “area with substrate EKLYFQS” value amounted to 0.0658 and the “area with substrate EMLYFQS” value was 0.0652. Moreover, the “area with substrate EQLYFQS” value is 0.0624, the “area with substrate ERLYFQS” value came to 0.0658, the “area with substrate ESLYFQS” value stood at 0.0686 and the “area with substrate ETLYFQS” value was 0.0779. The “area with substrate EVLYFQS” value is 0.0399 and the “area with substrate EWLYFQS” value was determined as 0.0619.
